The full ranking holds about 110,000 compounds; the median of “z-score” is about -0.1, and the highest 2% start at about 2. The list shows a part of the results. Calls of active or inactive are those of the source.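 Rule for the calls: active = z-score in the third read window above 3 or below -3; inactive = the rest.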

The target of the assay is Metabotropic glutamate receptor 8 (Rattus norvegicus) (UniProt P70579). The assay is described as follows: rat mGluR8 modulators via GIRK flux, primary screen, cell-based, thallium flux, HTS (AID 488969). The settings on record: HEK293 rat mGluR8, GIRK (G protein-gated inwardly rectifying potassium channel) thallium flux, FluoZin2; at 10 µM; stronger effect = higher value; submaximal glutamate (EC20) added with thallium.
UniProt P70579, sequence (P70579 whole entry, looked up): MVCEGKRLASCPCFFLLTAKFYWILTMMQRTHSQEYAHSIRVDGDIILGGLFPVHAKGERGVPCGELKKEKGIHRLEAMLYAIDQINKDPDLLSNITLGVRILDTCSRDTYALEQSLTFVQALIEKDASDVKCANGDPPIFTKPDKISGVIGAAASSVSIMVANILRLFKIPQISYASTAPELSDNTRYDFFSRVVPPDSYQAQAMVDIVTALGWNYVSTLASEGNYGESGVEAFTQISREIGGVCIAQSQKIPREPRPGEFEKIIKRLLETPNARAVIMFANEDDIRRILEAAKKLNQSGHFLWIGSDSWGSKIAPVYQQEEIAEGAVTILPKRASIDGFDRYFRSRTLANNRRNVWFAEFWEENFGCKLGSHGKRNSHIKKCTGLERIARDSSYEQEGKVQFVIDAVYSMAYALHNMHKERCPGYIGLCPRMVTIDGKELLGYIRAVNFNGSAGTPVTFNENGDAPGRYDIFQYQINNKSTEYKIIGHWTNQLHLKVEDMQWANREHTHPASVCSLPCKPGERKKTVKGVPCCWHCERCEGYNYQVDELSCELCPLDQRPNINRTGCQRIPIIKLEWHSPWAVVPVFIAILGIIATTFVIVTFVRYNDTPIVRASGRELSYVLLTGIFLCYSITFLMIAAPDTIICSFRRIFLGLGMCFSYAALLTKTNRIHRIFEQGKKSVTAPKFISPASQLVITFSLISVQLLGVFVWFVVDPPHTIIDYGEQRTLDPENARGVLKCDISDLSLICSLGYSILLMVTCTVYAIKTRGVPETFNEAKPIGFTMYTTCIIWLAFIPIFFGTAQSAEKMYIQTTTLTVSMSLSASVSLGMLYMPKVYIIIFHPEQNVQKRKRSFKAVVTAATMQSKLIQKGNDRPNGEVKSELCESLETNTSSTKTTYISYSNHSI
For `Cc1nc2scc(-c3cccs3)c2c(=O)n1CC(=O)O`, the z-score was -0.218. Compound `Cc1ccc(/C=C2\SC(=S)N(CCCC(=O)Nc3ccccn3)C2=O)cc1` gave a z-score of -0.137.

Compound `CC(C)(C)NC(=O)C(=O)NNC(=O)COc1ccccc1` registered a z-score of 0.182. The figure for `NC(=O)c1ccc(NCc2ccco2)c([N+](=O)[O-])c1` is -0.199; for `Cc1cc(/C=N/NC(=O)C(=O)NCc2ccccn2)c(C)n1-c1ccccc1` it is -0.0831; for `CC1(C)CC(=O)c2cc3c(N)c(C(=O)NCc4ccccc4)sc3nc2C1` it is 0.13. For `CC(C)(C)c1cc(=O)n2c(C#N)c(C#N)nc2[nH]1` the value was -0.141. `Cc1cc(-c2sccc2C)nc(-n2cccc2)n1`: the z-score was 0.114. `Cn1c(=O)c(C(=O)CN2CCN(S(=O)(=O)c3ccccc3)CC2)c(N)n(Cc2ccccc2)c1=O` came in with a z-score of -0.413.

As to `Cc1nnc(SCCn2c(N3CCN(C)CC3)nc3c2c(=O)[nH]c(=O)n3C)s1`, the z-score was determined as 0.434.

Consider `O=C(C1CCCCC1)N1CCC(c2nc3c(nnn3Cc3c(F)cccc3Cl)c(=O)[nH]2)CC1`, for which the z-score was -2.13.

For the compound `Cc1c(C(=O)N/N=C/c2ccc(-c3ccccc3[N+](=O)[O-])o2)sc(N)c1C#N`, the z-score was 0.00447. Compound `COc1cccc2cc3c(=O)oc4ccccc4c3nc12` yielded a z-score of 0.283. Take `CCCCOC(=O)CSc1nc(N)c(C#N)c(-c2ccc(OC)cc2)c1C#N`: the z-score is -0.1. With `COc1ccccc1Nc1ccc(C(=O)NC2CCCCC2)cn1`, the z-score is 0.419. In turn, `CCOC(=O)N1CCN(C(=O)CCCn2c(=S)[nH]c3ccccc3c2=O)CC1` registered a z-score of -0.357. `CCOC(=O)C(C(=O)Nc1ccccn1)C1CCCCC1` (configuration not stated): the z-score was -0.232. For `CCCCc1nc(SCC(=O)Nc2ncccn2)n[nH]1` the value was -0.193. For `Cc1cc(C)cc(NC(=S)N2CCN(CCO)CC2)c1` the value was -0.119; for `COCCNC(=O)C1CC(c2ccc([N+](=O)[O-])cc2)=NO1` (configuration not stated), 0.0618; for `O=C(NCc1ccccc1)c1ccc(S(=O)(=O)N2CCCC2)cc1`, 0.198. In turn, `Cc1ccc(S(=O)(=O)NCCC(=O)Nc2cccc(Cl)c2)cc1` yielded a z-score of -0.046. In turn, `COc1ccc(C(=O)OCC(=O)NCC2CCCCC2)cc1S(=O)(=O)N1CCCc2ccccc21` had a z-score of -0.107. `COc1ccc(-c2cn3ccccc3n2)cc1OC` had a z-score of 1.17. With `CCc1cc(C(=O)c2ccccc2OC)c(N)s1`, the z-score is -0.315. The compound `Cc1c2ccccc2nc2c(F)c(NC(C)C)c(F)c(F)c12` returned a z-score of -0.131. On to `Cc1nc(C)c(-c2csc(NCc3ccco3)n2)s1`, for which the z-score was -0.0974.

As for `COc1cccc(N=C2SC(C(=O)Nc3ccc(F)cc3)CC(=O)N2C)c1` (configuration not stated), the z-score was -0.106. With `COc1ccc(C(CC(=O)c2ccc(C)cc2)Nc2ccc([N+](=O)[O-])cc2)cc1` (configuration not stated), the z-score came out at 0.176.

For the compound `Cc1c(NC(=O)OCc2ccccc2)c(=O)n(-c2ccccc2)n1C`, the z-score came to 0.151.

Compound `CCC(C)(NC(=O)c1cccc(N2C(=O)CSC2c2ccccc2)c1)C(=O)Nc1ccccc1C` (configuration not stated) had a z-score of -0.133. `CCn1c(CC(=O)Nc2ccc(Cl)c(Cl)c2)nnc1SCc1ccc(C)cc1` registered a z-score of -0.174. The figure for `COCCCNCCCCSc1ccc(Cl)cc1` is 0.818. As for `O=C(Cn1cc(Cl)ccc1=O)c1ccc(Cl)cc1`, the z-score is 0.233. Regarding `O=C(N/C(=C/c1cccs1)C(=O)N1CCOCC1)c1ccco1`, the z-score is -0.0656. `COc1ccc(CC(=O)Nc2c3c(nn2-c2ccccc2C)CS(=O)C3)cc1` (configuration not stated) gave a z-score of -0.0338. `CCOC(=O)COc1cc(N2C(=O)CSCC2=O)c(Cl)cc1Cl` returned a z-score of -0.277. The compound `CN(C(=O)COC(=O)c1ccccc1SCC(=O)NC1CCCCCCC1)C1CCS(=O)(=O)C1` (configuration not stated) gave a z-score of -0.32. `CN(C)CCOC(C1CCCCC1)C1CCCCC1` came in with a z-score of 0.453. For the compound `CN1CCN(C(=O)CCc2nc3ccccc3c(=O)[nH]2)CC1`, the z-score is -0.0692. For the compound `CCCCc1nnc(NC(=O)C(C)Sc2nc(N)cc(=O)[nH]2)s1` (configuration not stated), the z-score is -0.615.

`O=C1CC(=O)N(c2ccccc2)c2ccccc21` had a z-score of -1.05. Turning to `Cc1nc(SCC#N)c2c3c(sc2n1)CCC3`, the z-score is -0.0564.

`O=C(O)c1ccc(-n2nnnc2SCc2ccccc2F)cc1` displayed a z-score of -0.0238.

Regarding `CCOC(=O)/C(=N/Nc1ccc(Cl)cc1)S(=O)(=O)c1ccc(Cl)cc1`, the z-score is -0.206. For `O=C(O)CCc1nc2cccnc2n1Cc1ccccc1` the value was -0.427; for `Cc1cc(Cl)ccc1OCC(=O)NCCOc1nc(N2CCOCC2)nc(N2CCOCC2)n1`, 0.0773.

The compound `O=C(N/C(=C/c1cccnc1)C(=O)N1CCOCC1)c1ccccc1` yielded a z-score of 0.00742. With `CCOC(=O)C(C)Oc1cccc2c(=O)n(CC(=O)Nc3ccc4c(c3)OCCO4)ccc12` (configuration not stated), the z-score was -0.343. As to `Cc1cc(N2CCC(C)CC2)n2ncc(-c3ccccc3)c2n1`, the z-score is active: 3.32. With `CC(CNc1ccc([N+](=O)[O-])cc1)NC(=O)c1ccccc1Br` (configuration not stated), the z-score was -0.0142. As for `CN1OC(COC(=O)c2ccccc2)CC1c1ccccc1` (configuration not stated), the z-score is -0.212.

Compound `COc1ccc(NC(=O)c2oc3ccccc3c2NC(=O)COc2ccccc2OC)c(OC)c1` showed a z-score of 0.0251. On to `CCn1nc(C)c(/C=N/NC(=O)Cc2ccc(Cl)cc2)c1C`, for which the z-score was found to be 0.274. `CCOC(=O)C(C(=O)OCC)C(C(=O)OCC)N1CCOCC1` (configuration not stated) yielded a z-score of 0.163. The figure for `CC(C)(C)c1cc(-n2ccnc2)n2ncc(-c3ccc(Cl)cc3)c2n1` is 0.402; for `Cn1c(SCC(=O)NCc2cccs2)nnc1-c1ccco1` it is -0.0179; for `COCCNC(=O)c1nn2cccnc2c1Cl` it is -0.587. The figure for `CCOCCCNC(=O)CN1C(=O)/C(=C\c2ccc(C)cc2)Sc2ccccc21` is -0.241; for `COc1ccccc1-c1cc(C(F)(F)F)n2ncc(S(=O)(=O)c3ccccc3)c2n1` it is -0.206. `O=[N+]([O-])c1ccc(OCC(O)CN2CCN(c3ccccc3F)CC2)cc1` (configuration not stated): the z-score was -0.357. On to `Nc1nonc1OCCc1ccccc1`, for which the z-score turned out to be 0.363. Turning to `COc1ccccc1N=C(C)C1=C(O)COC1=O`, the z-score was -0.206. For `O=C(Nc1nnc(-c2ccccc2Cl)o1)c1cccnc1` the value was -0.363. `CCC1(C)Cc2c(C#N)c(N)n(N)c(=S)c2CO1` (configuration not stated) showed a z-score of -0.24. On to `COc1ccc(OCCSc2nc3ccccc3n2CC(=O)O)cc1`, for which the z-score was determined as 0.432. Take `CCCOc1cccc(-c2cc(-c3n[nH]c(=S)n3CC)c3ccccc3n2)c1`: the z-score was active: 4.22. For `CC#CCN(CC#CC)S(=O)(=O)c1ccc(-n2cnnn2)c(OC)c1` the value was -0.162; for `O=C(NCCC1=CCCCC1)c1cnsn1`, -0.0586.

The compound `O=S(=O)(N/N=C\C=C\c1ccccc1)c1ccc(Br)cc1` returned a z-score of -0.289. For `COc1ccc(NC(=O)CCN2C(=O)c3ccc([N+](=O)[O-])cc3C2=O)c(OC)c1` the value was -0.0788; for `Cn1c(=O)c2c(ncn2CC(COCc2ccc(Cl)cc2)OCc2ccc(Cl)cc2)n(C)c1=O` (configuration not stated), -0.2; for `Cc1cc(C)cc(N2C(=O)C3CC=CCC3C2=O)c1` (configuration not stated), 0.129. On to `COc1ccc(S(=O)(=O)N2Cc3ccccc3CC2C(=O)N2CCOCC2)cc1` (configuration not stated), for which the z-score stood at 0.235. `COC(=O)c1ccc(Oc2nc(N3CCCCC3)nc(N3CCOCC3)n2)cc1` registered a z-score of -0.157. Compound `CCN(C(=O)c1ccccc1Cl)c1ccccc1` had a z-score of -0.51. Compound `O=C(NCCN=C1NS(=O)(=O)c2ccccc21)c1ccncc1` returned a z-score of -0.177. Compound `COCCCn1c(SCc2ccccc2)nc2cc(OC)c(OC)cc2c1=N` came in with a z-score of -0.26. `Cc1cc(C(=O)Nc2c(C)n(C)n(-c3ccccc3)c2=O)cs1`: the z-score is -0.144. The compound `CCc1ccccc1NCC(=O)Nc1ccc(Cl)c(C(F)(F)F)c1` showed a z-score of -0.0436.

Take `CCOC(=O)Cn1c(=NC(=O)C(C)(C)C)sc2cc([N+](=O)[O-])ccc21`: the z-score was -0.331. For the compound `CCN(CC)CCn1c(=S)[nH]c2ncccc2c1=O`, the z-score amounted to 0.0629. Compound `Cc1ccccc1NC(=O)Cc1nc(-c2ccc3ccccc3c2)cs1` returned a z-score of -0.316.

In turn, `COc1cccc(-c2nc(CS(=O)CC(=O)NC3CCCC3)c(C)o2)c1` (configuration not stated) had a z-score of -0.403.

Take `Cc1nnc(SCC(=O)Nc2sc3c(c2C(N)=O)CCCC3)[nH]c1=O`: the z-score is -0.379. The compound `O=C1CN(c2nc(-c3ccccc3)c3ccccc3n2)c2ccccc2N1` displayed a z-score of 0.0233. `COc1ccc(OCCn2nnc(-c3ccc(Cl)cc3)n2)cc1`: the z-score is 0.195.

In turn, `COCC(C)n1c(SCC(=O)NNC(=O)c2ccccc2)nc2ccccc2c1=O` (configuration not stated) had a z-score of -0.346. `O=C(Cc1ccc(Cl)cc1)NCCS(=O)c1ccc(Cl)cc1` (configuration not stated) came in with a z-score of 0.254. `Cc1nn(S(=O)(=O)c2cccs2)c(C)c1Sc1ccccc1` returned a z-score of -0.19. The figure for `CCOc1ccc(CCNC(=O)CN(C)S(=O)(=O)c2ccc3c(c2)CCC(=O)N3)cc1OCC` is 0.0665. On to `N=C(N)SCc1nc2ccccn2c1Br`, for which the z-score was 0.308. `O=C(CCc1nc2ccccc2c(=O)[nH]1)OCC(=O)c1ccc(C2CCCCC2)cc1` came in with a z-score of 0.117. For `CCNC(=S)N1CCN(CCN=CC2=C(O)CC(c3ccco3)CC2=O)CC1` (configuration not stated) the value was -0.0719; for `CCOc1ccc(C2=Nc3ccc(Br)cc3C(c3ccc(N4CCOCC4)cc3)=NN2)cc1`, -0.548. For `O=C(Nc1nc(-c2ccccc2)cs1)C1CCCN(S(=O)(=O)c2cccc([N+](=O)[O-])c2)C1` (configuration not stated), the z-score was 0.108. The figure for `Cc1ccc(OCC(=O)N/N=C/c2ccncc2)cc1` is 0.0746; for `Cc1c(C(=O)OC(C)C)sc(N)c1C(=O)OC(C)C` it is 1.8; for `COc1cc(/C=N/NC(N)=S)ccc1OC(=O)c1ccc(C)cc1` it is -0.0936. On to `Cc1cc(NS(=O)(=O)c2ccc(Br)s2)no1`, for which the z-score is -0.189.

Take `CCn1c(SCC(=O)N/N=C/c2cc(OC)c(O)c(OC)c2)nc2ccccc21`: the z-score was 0.476. Regarding `CCCNC(=S)N1CCC(C(=O)c2ccc(OC)cc2)CC1`, the z-score is -0.136. The figure for `O=C(O)c1ccccc1NC(=O)C1CCCO1` (configuration not stated) is 0.0656. For `O=S(=O)(NCc1ccccc1)c1ccc(Cl)c(S(=O)(=O)NCc2ccccc2)c1`, the z-score was found to be 0.165. `Cc1cc(NC(=O)CCC2CCCCC2)no1`: the z-score was 0.0226. `COc1cc(C(=O)Nc2nccs2)c(Br)c(OC)c1OC` registered a z-score of 0.273. As for `O=C(CN1CCCN(Cc2ccc(F)cc2Cl)C1=O)NC1CCCCCC1`, the z-score was -0.345. Consider `COc1ccccc1Nc1nnc(SCC(=O)N2CCCC2)s1`, for which the z-score was -0.227.

In the case of `Cc1ccc(-n2c(C)cc(C(=O)NS(=O)(=O)c3ccc(C)cc3)c2C)cc1`, the z-score is -0.116.

The compound `CCOC(=O)c1cnc(Nc2nc3ccccc3o2)nc1C` had a z-score of -0.195. As for `COc1ccc(-n2c(Cc3cc(=O)[nH]c(=O)[nH]3)nnc2SCC(=O)N2CCC(C)CC2)cc1`, the z-score is -0.449. `COc1ccccc1C(=O)NCCCn1cc(Br)c(C)n1`: the z-score was -0.16.

For the origin of these results see PubChem BioAssay AID488969 (Vanderbilt High Throughput Screening Facility, 2010).
